In US20260258125A1:

Target: antigen of the anti-CEACAM5/6 antibodies on HPAC cells
Test: cell-based or functional assay

B1: PR304294 (antibody, human IgG1, kappa)
heavy: EVQLLESGGGLVQPGGSLRLSCAASGFTFSSYAMSWVRQAPGKGLEWVSAISGTTYNTYYAGSVKGRFTISRDNSKNTLYLQMNSLRAEDTAVYYCAKGISVAGYYYYGMDVWGQGTTVTVSS[letters of human IgG1 constant region omitted]
light: EIVMTQSPATLSVSPGERATLSCRASQSVISNLAWYQQKPGQAPRLLIYGASTRATGIPARFSGSGSGTEFTLTISSLQSEDFAVYYCHQYNNWPLTFGGGTKVEIKRTVAAPSVFIFPPSDEQLKSGTASVVCLLNNFYPREAKVQWKVDNALQSGNSQESVTEQDSKDSTYSLSSTLTLSKADYEKHKVYACEVTHQGLSSPVTKSFNRGEC
  Internalization of pHAb-dye-labelled antibody, MFI (37° C.-4° C.)/DAR: 130000
